This is one part of the list. The energies were worked out here from pooled read counts, against the library average; single values are noisy.
target: T1, Pho4 (S. cerevisiae) (UniProt P07270); assay: relative binding free energy (BET-seq); higher = weaker binding; conditions: reference: library average
T1 sequence: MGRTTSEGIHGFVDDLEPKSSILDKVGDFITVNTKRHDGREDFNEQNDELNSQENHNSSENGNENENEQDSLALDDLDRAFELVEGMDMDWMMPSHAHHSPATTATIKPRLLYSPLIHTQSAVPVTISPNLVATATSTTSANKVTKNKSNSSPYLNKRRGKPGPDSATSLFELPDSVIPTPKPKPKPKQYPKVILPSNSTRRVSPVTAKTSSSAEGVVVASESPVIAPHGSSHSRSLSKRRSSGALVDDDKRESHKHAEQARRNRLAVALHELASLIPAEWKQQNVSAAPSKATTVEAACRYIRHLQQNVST

Sequence	relative binding free energy
TAGTGCACGTGCCGGG	-0.06 kcal/mol
TGGGTCACGTGAAAAT	0.43 kcal/mol
TATATCACGTGATCGT	0.25 kcal/mol
CGGCTCACGTGGGTCG	0.14 kcal/mol
GTGGGCACGTGATAAA	0.11 kcal/mol
AATAGCACGTGCAGGG	-0.07 kcal/mol
ACTTACACGTGAGGGG	0.14 kcal/mol
ATTTTCACGTGCTAAT	0.23 kcal/mol
AATCGCACGTGGTGGT	-0.31 kcal/mol
GTGGACACGTGTTGCG	-0.06 kcal/mol
TTGGACACGTGTCTTA	0.03 kcal/mol
TAAGTCACGTGTTACA	0.13 kcal/mol
GTGATCACGTGTACGG	0.24 kcal/mol
GTTGGCACGTGGTCGA	-0.2 kcal/mol
GAGTTCACGTGATAGG	0.36 kcal/mol
ACGGACACGTGGGGAT	-0.12 kcal/mol
TCAGTCACGTGGGAGT	-0.1 kcal/mol
CGGTTCACGTGACTGG	0.34 kcal/mol
TGATACACGTGGCGGA	0.12 kcal/mol
GGATGCACGTGGAGGG	-0.17 kcal/mol

Sequence	relative binding free energy
TATGTCACGTGGGGTC	0 kcal/mol
GTATCCACGTGTGGGA	0.12 kcal/mol
GTTCACACGTGTGTAT	0.22 kcal/mol
TAAGGCACGTGGTTTT	-0.07 kcal/mol
GAGGCCACGTGGCGGT	-0.11 kcal/mol
GGGAACACGTGAGAGG	0.32 kcal/mol
TGGATCACGTGAATTG	0.3 kcal/mol
TTGAGCACGTGCCGTG	0.03 kcal/mol
TCATGCACGTGGTTAT	-0.26 kcal/mol
TTCGACACGTGGTATG	-0.04 kcal/mol
TTTTTCACGTGTACGT	0.36 kcal/mol
TCGGTCACGTGTAATT	0.2 kcal/mol
GGGTGCACGTGGCTGT	-0.03 kcal/mol
ATATTCACGTGGATGA	0.18 kcal/mol
GGGTTCACGTGTCACG	0.23 kcal/mol
TGAAGCACGTGGGGCG	-0.27 kcal/mol
GGTGACACGTGGTCTC	0 kcal/mol
TTTCTCACGTGGACGG	0.31 kcal/mol
TATGTCACGTGCAAAG	0.2 kcal/mol
AAGAACACGTGTGGTG	0 kcal/mol

Sequence	relative binding free energy
GTTCGCACGTGGTTTC	0.01 kcal/mol
AGGATCACGTGGATTG	0.26 kcal/mol
AACGTCACGTGGTGTG	0.03 kcal/mol
CAAGGCACGTGAGAGT	0.19 kcal/mol
GACAGCACGTGCGGGT	0.05 kcal/mol
GTTGTCACGTGATGTT	0.38 kcal/mol
AATGGCACGTGGTACG	-0.2 kcal/mol
TTAGCCACGTGTGGAG	0.02 kcal/mol
GCTCGCACGTGGTTGT	-0.04 kcal/mol
GGTATCACGTGTCTGG	0.08 kcal/mol
ATATGCACGTGAAGTA	0.14 kcal/mol
ATGTTCACGTGGGGGG	0.14 kcal/mol
ACGTACACGTGGGGGT	-0.17 kcal/mol
ATTGGCACGTGCCGTT	-0.2 kcal/mol
AGTTTCACGTGGAAAG	0.26 kcal/mol
CGTGTCACGTGGGTCT	-0.08 kcal/mol
AAGGGCACGTGTGAGC	0.02 kcal/mol
TATTTCACGTGGAGCT	0.09 kcal/mol

From the BET-seq Pho4 binding data (Le et al. 2018)
